Measured values published in PMC8024281.
Results are given in words; binding and its absence hold for the method and conditions named. For some assays here: Binding seen in cells or lysates may run through a third protein. Some results given as binding are weak or reduced against the parent protein; the word gives no strength. Blank lines part the entries; values can stand above or below the molecule they belong to.

Chains of the proteins cited; added tags and fusions are not shown.
UniProt P42771: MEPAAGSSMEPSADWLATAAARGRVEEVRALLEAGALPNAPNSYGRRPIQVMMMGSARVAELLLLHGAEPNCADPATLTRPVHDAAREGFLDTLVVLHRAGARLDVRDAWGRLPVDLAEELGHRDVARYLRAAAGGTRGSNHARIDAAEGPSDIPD
UniProt P55271: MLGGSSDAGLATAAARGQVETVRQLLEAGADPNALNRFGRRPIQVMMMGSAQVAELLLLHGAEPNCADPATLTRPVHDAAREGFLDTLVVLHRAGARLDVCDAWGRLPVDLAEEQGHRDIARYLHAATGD
UniProt P06733: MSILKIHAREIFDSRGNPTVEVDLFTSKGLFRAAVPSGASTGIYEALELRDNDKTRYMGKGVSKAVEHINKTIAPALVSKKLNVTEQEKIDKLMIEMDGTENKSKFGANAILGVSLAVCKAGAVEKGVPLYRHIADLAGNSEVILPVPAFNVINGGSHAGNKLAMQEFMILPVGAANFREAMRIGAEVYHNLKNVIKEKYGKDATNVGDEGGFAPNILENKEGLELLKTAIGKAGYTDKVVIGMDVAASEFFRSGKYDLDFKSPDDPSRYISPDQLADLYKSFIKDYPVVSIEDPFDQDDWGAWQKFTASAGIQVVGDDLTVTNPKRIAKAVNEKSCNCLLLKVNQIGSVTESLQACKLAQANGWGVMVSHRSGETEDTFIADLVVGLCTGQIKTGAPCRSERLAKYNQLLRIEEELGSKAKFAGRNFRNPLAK
UniProt P09104: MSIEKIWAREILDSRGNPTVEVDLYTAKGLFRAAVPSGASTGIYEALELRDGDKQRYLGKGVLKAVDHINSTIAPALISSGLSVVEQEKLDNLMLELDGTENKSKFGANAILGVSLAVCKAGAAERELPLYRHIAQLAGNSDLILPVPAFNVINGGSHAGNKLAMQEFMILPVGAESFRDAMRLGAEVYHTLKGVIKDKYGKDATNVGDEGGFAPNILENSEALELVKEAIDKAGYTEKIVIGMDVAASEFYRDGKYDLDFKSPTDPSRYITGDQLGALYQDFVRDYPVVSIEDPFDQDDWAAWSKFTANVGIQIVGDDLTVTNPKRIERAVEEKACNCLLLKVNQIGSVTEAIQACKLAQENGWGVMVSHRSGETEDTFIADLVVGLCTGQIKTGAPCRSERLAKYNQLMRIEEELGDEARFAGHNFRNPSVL
UniProt P52480: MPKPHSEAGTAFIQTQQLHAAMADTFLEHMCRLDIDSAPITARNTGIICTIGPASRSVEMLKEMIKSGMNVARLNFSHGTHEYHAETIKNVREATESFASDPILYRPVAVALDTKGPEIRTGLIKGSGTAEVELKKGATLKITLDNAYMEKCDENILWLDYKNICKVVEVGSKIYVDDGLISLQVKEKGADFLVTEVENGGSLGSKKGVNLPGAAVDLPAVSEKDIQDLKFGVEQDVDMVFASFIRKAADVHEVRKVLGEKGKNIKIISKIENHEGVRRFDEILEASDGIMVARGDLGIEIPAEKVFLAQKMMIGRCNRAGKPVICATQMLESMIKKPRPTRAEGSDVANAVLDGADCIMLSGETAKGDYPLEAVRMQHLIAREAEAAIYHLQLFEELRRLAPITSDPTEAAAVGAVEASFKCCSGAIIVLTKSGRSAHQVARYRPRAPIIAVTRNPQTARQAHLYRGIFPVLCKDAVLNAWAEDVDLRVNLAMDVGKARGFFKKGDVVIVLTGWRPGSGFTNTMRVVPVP

Experiments:
[1] = molecular target: Histidine-tagged p15^INK4B (wild type), E. coli-produced (human) (UniProt P42772); experiment: pull-down; His-tagged protein from E. coli incubated with total UMUC3 lysate (RIPA buffer) overnight at 4 °C, Ni-NTA column, eluted with increasing imidazole; western blot with densitometry; only the target purified
[2] = molecular target: Histidine-tagged p16^INK4A (wild type), E. coli-produced (human) (UniProt P42771); experiment: as above
[3] = molecular target: Myc-tagged p15^INK4B (wild type) (human) (UniProt P42772); experiment: co-IP; UMUC3 cells induced to express the Myc-tagged protein; RIPA buffer (25 mM Tris-HCl pH 7.6, 150 mM NaCl, 1% NP-40); anti-Myc-tag antibody overnight at 4 °C, protein A/G agarose 4 h; western blot with densitometry; also done after shRNA knock-down of enolase-1
[4] = molecular target: Myc-tagged p16^INK4A (wild type) (human) (UniProt P42771); experiment: as above
[5] = molecular target: p15^INK4B (endogenous, mouse urothelial cells) (mouse (endogenous in urothelial cells)) (UniProt P55271); experiment: co-IP; total proteins of mouse urothelial cells expressing HRas* (with or without p15); immunoprecipitation of endogenous p15 or p16, western blot
p15 protein (Abcam) = p15 protein (Abcam) (UniProt P42772); experiment: ELISA; p15 (2.5 μg/ml) coated on a 96-well plate, blocked with 1% BSA; CDK4 (5 μg/ml) added with 0–40 μg/ml enolase-1, 37 °C 2 h; bound CDK4 detected with anti-CDK4 antibody, HRP, TMB, 450 nm; both purified
[6] = molecular target: T1, p15 protein (Abcam), P42772; experiment: as above; details: remark: other sources report otherwise
T1 chain: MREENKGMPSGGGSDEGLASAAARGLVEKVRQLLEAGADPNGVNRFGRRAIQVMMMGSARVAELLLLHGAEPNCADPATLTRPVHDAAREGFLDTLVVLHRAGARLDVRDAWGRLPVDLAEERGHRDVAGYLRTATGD

Molecule: enolase-1 (endogenous, UMUC3) (from UniProt P06733 1-434) (enzyme)
binding [1]: binds
binding [2]: no binding
binding [3]: binds
binding [4]: no binding

Molecule: enolase-2 (endogenous, UMUC3) (from UniProt P09104 1-434) (enzyme)
binding [3]: no binding

B1: CDK4 (Novus), P11802 1-303 (enzyme)
chain: MATSRYEPVAEIGVGAYGTVYKARDPHSGHFVALKSVRVPNGGGGGGGLPISTVREVALLRRLEAFEHPNVVRLMDVCATSRTDREIKVTLVFEHVDQDLRTYLDKAPPPGLPAETIKDLMRQFLRGLDFLHANCIVHRDLKPENILVTSGGTVKLADFGLARIYSYQMALTPVVVTLWYRAPEVLLQSTYATPVDMWSVGCIFAEMFRRKPLFCGNSEADQLGKIFDLIGLPPEDDWPRDVSLPRGAFPPRGPRPVQSVVPEMEESGAQLLLEMLTFNPHKRISAFRALQHSYLHKDEGNPE
binding [6]: binds

Now from value to molecule:

binding [5]: no binding
Molecule: pyruvate kinase 2 (PKM2) (endogenous, mouse urothelial cells) (from UniProt P52480 1-531) (enzyme)

binding (p15 protein (Abcam)): binds
Molecule: enolase-1 (Sino Biological), purified (from UniProt P06733 1-434) (enzyme)
